Molecules are shown by their SMILES. Screen size: about 310,000 compounds; about 14,000 (4.5%) showed an effect of 50% or more. The effect is printed as a negative number. This is one part of the list.
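Also: peak tail current of the secondary pulse compared with the same well before compound.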

The test deals with human ether-à-go-go-related gene (hERG) potassium channel (human, UniProt Q12809). The experiment in a line: primary screen, population patch clamp on CHO cells stably expressing hERG.
human ether-à-go-go-related gene (hERG) potassium channel, sequence (Q12809 whole entry, looked up): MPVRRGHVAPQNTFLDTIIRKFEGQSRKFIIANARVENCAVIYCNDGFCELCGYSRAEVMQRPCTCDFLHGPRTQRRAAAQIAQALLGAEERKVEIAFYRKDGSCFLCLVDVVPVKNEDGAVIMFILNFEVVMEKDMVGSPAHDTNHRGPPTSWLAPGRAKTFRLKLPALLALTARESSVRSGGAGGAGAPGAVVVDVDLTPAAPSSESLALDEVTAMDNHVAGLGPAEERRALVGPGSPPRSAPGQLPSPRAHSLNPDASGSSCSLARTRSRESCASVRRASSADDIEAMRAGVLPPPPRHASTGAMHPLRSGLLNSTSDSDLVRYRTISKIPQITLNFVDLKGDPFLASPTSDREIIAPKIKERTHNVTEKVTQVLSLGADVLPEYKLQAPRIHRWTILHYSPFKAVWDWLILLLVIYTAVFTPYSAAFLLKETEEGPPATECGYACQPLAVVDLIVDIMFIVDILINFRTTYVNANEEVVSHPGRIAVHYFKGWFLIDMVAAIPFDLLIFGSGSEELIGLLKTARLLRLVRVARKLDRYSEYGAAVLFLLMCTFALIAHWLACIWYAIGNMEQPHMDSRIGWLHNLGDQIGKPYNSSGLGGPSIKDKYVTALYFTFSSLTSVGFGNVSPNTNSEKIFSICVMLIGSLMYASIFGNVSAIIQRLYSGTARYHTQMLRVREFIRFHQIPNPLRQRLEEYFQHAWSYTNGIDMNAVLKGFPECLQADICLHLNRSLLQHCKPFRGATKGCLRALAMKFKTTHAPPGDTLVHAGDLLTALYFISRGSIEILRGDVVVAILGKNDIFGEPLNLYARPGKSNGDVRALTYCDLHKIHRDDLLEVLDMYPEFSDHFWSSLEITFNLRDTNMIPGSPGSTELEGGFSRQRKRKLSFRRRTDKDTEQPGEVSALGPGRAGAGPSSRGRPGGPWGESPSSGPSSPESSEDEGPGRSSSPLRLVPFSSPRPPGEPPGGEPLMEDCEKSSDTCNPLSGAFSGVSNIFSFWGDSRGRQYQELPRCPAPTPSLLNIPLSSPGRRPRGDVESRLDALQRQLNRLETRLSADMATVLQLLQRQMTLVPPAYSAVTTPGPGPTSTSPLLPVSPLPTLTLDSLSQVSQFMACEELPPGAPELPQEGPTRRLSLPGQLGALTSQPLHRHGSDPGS
Take `O=C1OC2(c3ccccc31)c1cc(I)c(O)c(I)c1Oc1c2cc(I)c(O)c1I`: the “hERG current change (%, negative = inhibition) at 10uM” value is 5.17%.
To `Oc1c(Br)cc(Br)cc1/C=N/c1nc2c(s1)CCCC2` belongs -2.11%; to `COc1cc(/C=C(\C#N)C(=O)NCC2CCCO2)ccc1OC(=O)c1ccco1` (centres unmarked), 3.54%.
On to `CCc1nn(CC(=O)NCCCN(CC)CC)c(=O)c2cc3sc(C)cc3n12`, for which the “hERG current change (%, negative = inhibition) at 10uM” value was 7.73%.
Consider `COc1ccc(N(CC(=O)NC2CCCC2)S(=O)(=O)c2ccc(NC(C)=O)cc2)cc1`, for which the “hERG current change (%, negative = inhibition) at 10uM” value is given as -8.33%.
To `O=C(Nc1ccc2c(c1)OCO2)N1CCN(c2ccccc2)CC1` belongs -9.85%; to `O=[N+]([O-])c1c(Nc2ccccc2O)cc(Cl)c2nonc12`, -19.2%; to `Cc1cccc(C(=O)NCC(=O)N2CC=C(c3ccccc3)CC2)c1`, -40.9%.
Next, `CC(C)N1CCc2c(sc(NC(=O)C3CCCCC3)c2C(N)=O)C1.Cl`: -21.7%.
Next, `CCCCn1c(CN2CCN(c3cccc(Cl)c3)CC2)nc2c1c(=O)[nH]c(=O)n2C`: 5.59%; `O=C(NC(c1ccc(Cl)cc1)c1c(O)ccc2ccccc12)c1ccccc1` (centres unmarked): 3.91%.
Regarding `CCN1CC2=C(OC(N)=C(C#N)C2c2cccs2)/C(=C/c2cccs2)C1` (centres unmarked), the “hERG current change (%, negative = inhibition) at 10uM” value is -20.5%.
Next, `O=C(NC(Cc1ccccc1)C(=O)O)/C(=C/c1ccccc1)NC(=O)c1ccccc1` (centres unmarked): 12%; `COc1ccc(NC(=O)C2CCN(c3cc(C)nc(-c4ccccc4)n3)CC2)cc1`: -31.5%; `O=C(Nc1cccc(S(=O)(=O)N2CCOCC2)c1)c1cn(-c2ccccc2)nc1-c1ccc(F)cc1`: -3.59%.
As to `CC(/C=C\c1cccnc1)=C/C(=O)[O-].[Na+]`, the “hERG current change (%, negative = inhibition) at 10uM” value is on record as 7.39%.
As to `COC(=O)c1c(NC(=O)CSc2ncnc3[nH]ncc23)sc2c1CCC2`, the “hERG current change (%, negative = inhibition) at 10uM” value turned out to be 21.9%.
To `CCN(C(=O)c1ccc(S(=O)(=O)N2CCC(C)CC2)cc1)C1CCS(=O)(=O)C1` (centres unmarked) belongs 7.87%; to `Cc1cc(C)nc(CC(N)=O)n1`, -4.7%; to `CCCN1CC(C)C(OC(C)=O)(c2ccccc2)CC1C.Cl` (centres unmarked), 0.16%.
Next, `Cc1ccnc(NC(=O)c2cccc(OC(F)F)c2)n1`: 4.47%; `O=C(c1cccnc1)c1cccnc1`: 9.11%; `CCOC(=O)c1nnn(-c2nonc2N)c1CNC(C)C`: -14.2%.
Next, `O=C(c1cc(-c2ccc(Cl)cc2)on1)N1CCN(c2ccccc2)CC1`: 3.5%; `CCOc1ccccc1NC(=O)C(CC)Sc1nc2ccsc2c(=O)n1CCC(=O)O` (centres unmarked): 15%; `O=C(CCCOc1ccc(Cl)cc1Cl)NCCCO`: -11.5%.
As to `COc1cc(CNCc2ccncc2)cc(OC)c1OC.Cl`, the “hERG current change (%, negative = inhibition) at 10uM” value is listed as 18.4%.
To `CN(C)S(=O)(=O)N1CCN(S(=O)(=O)c2ccccc2)CC1` belongs 6.96%.
Next, `CN(C(=O)C1CCN(S(=O)(=O)c2ccccc2)CC1)c1c(N)n(Cc2ccccc2)c(=O)[nH]c1=O`: 20.8%.
To `O=C(N1CCN=C1SCc1cccnc1)C12CC3CC(CC(C3)C1)C2` belongs -15.8%; to `CCCC(=O)Nc1ccc(NC(=O)c2ccco2)c(OC)c1`, 1.21%; to `O=C(NCCN1CCOCC1)c1cc2sccc2n1Cc1ccc(F)cc1`, -47%.
Consider `CC(C)(C)c1ccc(C(CC(=O)O)NC(=O)CCCc2ccccc2)cc1` (centres unmarked), for which the “hERG current change (%, negative = inhibition) at 10uM” value turned out to be 4.13%.
Next, `Cc1ccccc1NS(=O)(=O)c1ccc(Cl)cc1`: -11.4%.
To `O=S(=O)(c1ccccc1)N(CC(O)Cn1c2ccccc2c2ccccc21)c1ccccc1` (centres unmarked) belongs 14.9%; to `CC1CCCC(C)N1C(=O)c1cc(-c2cccs2)on1` (centres unmarked), -16.3%.
To `COc1ccc(OC)c(NC(=O)COC(=O)/C=C/c2c(C)nn(C3CCS(=O)(=O)C3)c2Cl)c1` (centres unmarked) belongs 1.74%.
Take `CC(=O)Nc1ccc(C(=O)OCc2ccc(F)cc2Cl)cc1`: the “hERG current change (%, negative = inhibition) at 10uM” value was 29.3%.
To `COc1ccc(C(NC(=O)C(C)C)c2ccc3cccnc3c2O)cc1` (centres unmarked) belongs -9.24%.
To `COc1ccc(N2CC(O)(c3ccc(F)cc3)[N+]3=C2CCCC3)cc1.[Br-]` (centres unmarked) belongs -3.37%.
As to `CC(Sc1ccc(Cl)cc1)C(=O)NCc1ccc2c(c1)OCO2` (centres unmarked), the “hERG current change (%, negative = inhibition) at 10uM” value was -20%.
Next, `CCCC1C2C(=O)N(c3ccccc3OCC)C(=O)C2ON1c1ccccc1` (centres unmarked): 7.62%.
To `CC(C)(C)NC(=O)CN(C(=O)C(=O)Nc1ccc2c(c1)OCCO2)C1CCCC1` belongs 8.51%.
Next, `COc1cc(OC)cc(C(C(=O)NC2CCCCC2)N(C(=O)c2ccno2)c2ccccc2)c1` (centres unmarked): 9.79%; `Oc1ccc2ccccc2c1CNc1ccccn1`: 23.6%.
Take `Cn1c(O)c(C=NC2CC3CCC2(C)C3(C)C)c(=O)[nH]c1=O` (centres unmarked): the “hERG current change (%, negative = inhibition) at 10uM” value is -11.9%.
To `COCCNCC(=O)N1CCCCCC1.O=C(O)C(=O)O` belongs -24.6%.
Next, `Cc1ccc(CSc2nnc(-c3ccncc3)n2CC2CCCO2)cc1` (centres unmarked): 0.73%; `C/C(=N\NC(=O)c1nnn(-c2nonc2N)c1CN(C)c1ccccc1)c1cccc(O)c1`: 9.64%; `O=C(COC(=O)c1ccc(Cl)c([N+](=O)[O-])c1)Nc1ccccc1OC(F)F`: 16.9%.
To `Cc1ccc(C)c(S(=O)(=O)N2CCCCC2CCNC(=O)C(=O)NCc2ccco2)c1` (centres unmarked) belongs -21.8%.
For `CCn1c(SCC(=O)Nc2ccc(C(C)=O)cc2)nc2nc3c(cc2c1=O)COC(C)(C)C3`, the “hERG current change (%, negative = inhibition) at 10uM” value is reported as 13.8%.
To `CCOC(=O)c1csc(NC(=O)c2ccccc2)n1` belongs -8.86%.
`O=C(c1ccc(Cl)c(S(=O)(=O)N2CCCCCC2)c1)N1CCOCC1`: the “hERG current change (%, negative = inhibition) at 10uM” value is 5.32%.
`CCOC(=O)c1cc(C(C)C)sc1NC(=O)COC(=O)c1nccnc1N`: the “hERG current change (%, negative = inhibition) at 10uM” value is recorded as -20.9%.
For `COc1ccc(CCNC(=O)CCN2C(=O)COc3ccc(C)cc32)cc1OC`, the “hERG current change (%, negative = inhibition) at 10uM” value was -17%.

Values taken from publication PMC4336329 (PLoS ONE, 2015).
